Measurements: publication PMC4336329 (PLoS ONE, 2015)
About 14,000 (4.5%) of roughly 310,000 compounds showed an effect of 50% or more. The effect is printed as a negative number. The list shows a part of the results.

These compounds were tested against human ether-à-go-go-related gene (hERG) potassium channel (human, UniProt Q12809) (assay: primary screen, population patch clamp on CHO cells stably expressing hERG).
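Further: peak tail current of the secondary pulse compared with the same well before compound.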

human ether-à-go-go-related gene (hERG) potassium channel, sequence (Q12809 whole entry, looked up): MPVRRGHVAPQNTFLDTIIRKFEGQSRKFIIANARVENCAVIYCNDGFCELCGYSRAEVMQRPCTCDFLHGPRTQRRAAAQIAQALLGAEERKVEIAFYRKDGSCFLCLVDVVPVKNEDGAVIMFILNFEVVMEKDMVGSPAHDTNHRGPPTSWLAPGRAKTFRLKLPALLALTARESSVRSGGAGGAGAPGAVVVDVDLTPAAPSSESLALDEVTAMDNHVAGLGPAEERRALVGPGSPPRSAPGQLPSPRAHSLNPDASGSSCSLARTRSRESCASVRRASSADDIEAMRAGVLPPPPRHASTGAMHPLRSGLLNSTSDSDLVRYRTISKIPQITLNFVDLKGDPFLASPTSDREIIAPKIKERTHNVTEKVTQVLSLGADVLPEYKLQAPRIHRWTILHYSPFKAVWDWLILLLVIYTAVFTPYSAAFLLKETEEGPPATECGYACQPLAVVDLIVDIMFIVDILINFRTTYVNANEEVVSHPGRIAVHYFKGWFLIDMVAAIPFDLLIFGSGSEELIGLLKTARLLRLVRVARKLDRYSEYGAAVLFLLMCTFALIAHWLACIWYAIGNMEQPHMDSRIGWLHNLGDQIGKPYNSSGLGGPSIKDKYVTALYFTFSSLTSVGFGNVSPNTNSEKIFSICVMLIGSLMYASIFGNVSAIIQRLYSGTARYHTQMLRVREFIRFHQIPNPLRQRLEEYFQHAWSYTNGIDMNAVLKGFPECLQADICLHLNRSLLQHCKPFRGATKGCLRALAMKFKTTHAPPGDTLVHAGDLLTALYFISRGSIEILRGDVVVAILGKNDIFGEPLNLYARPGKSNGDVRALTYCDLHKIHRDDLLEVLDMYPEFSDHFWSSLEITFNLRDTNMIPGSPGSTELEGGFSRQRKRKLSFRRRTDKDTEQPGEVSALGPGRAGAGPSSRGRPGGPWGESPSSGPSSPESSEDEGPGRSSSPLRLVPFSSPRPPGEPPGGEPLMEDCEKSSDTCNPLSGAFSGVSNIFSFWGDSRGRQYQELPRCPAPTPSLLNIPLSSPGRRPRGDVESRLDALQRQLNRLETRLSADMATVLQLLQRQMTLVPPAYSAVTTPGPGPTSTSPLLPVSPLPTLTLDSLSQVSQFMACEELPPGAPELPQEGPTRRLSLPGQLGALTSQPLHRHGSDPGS

SMILES	hERG current change (%, negative = inhibition) at 10uM [%]
CC(C)=CC(=O)Nc1c(C)cc(C)cc1Cl	13.7
Cc1ccc2nc(-c3cccc(N)c3)[nH]c2c1	9.34
CCCCCC1CCC(C(=O)N2CCOCC2)CC1 (centres unmarked)	-2.44
CC(C)(C)C(=O)Nc1ccc(S(=O)(=O)NC2=NCCCCC2)cc1	14.8
Cc1cc(C)c(/C=C(\C#N)S(=O)(=O)c2ccccc2)[nH]1	11
CCNc1nc(NCC)n2c(SCC(=O)c3ccc(C(C)C)cc3)nnc2n1	-13.2
CCC(=O)Nc1nonc1-c1nc2ccccc2n1CCC(C)C	-5.72
COc1ccc(NC(=O)CSc2nnc(C3CCCCC3)n2N)c(OC)c1	9.5
O=C(Nc1cccc(S(=O)(=O)N2CCCCC2)c1)C1CCN(C(=O)c2ccc(Cl)cc2)CC1	-31.7
CCS(=O)(=O)c1ccc2c(c1)N(S(=O)(=O)c1ccc(Cl)cc1)CC(C(=O)O)O2 (centres unmarked)	3.39
COc1ccc(NC(=O)CSCC(=O)N(C)CCOc2ccc(Cl)cc2)cc1	-40.1
Cc1ccnc(NS(=O)(=O)c2ccc(N=CC3=C(O)CC(C)(C)CC3=O)cc2)n1	-9.43
C1CC2NCCC3NCCC(N1)N32 (centres unmarked)	6.04
CC(C)NC(=O)NC(=O)COC(=O)Cc1ccsc1	0.835
Cc1ccc(NCC(=O)Nc2c(C)n(C)n(-c3ccccc3)c2=O)cc1S(=O)(=O)N(C)C	5.73
Cc1cccc(N(C)S(=O)(=O)c2ccc3c(c2)NC(=O)CC(=O)N3)c1	31.8
Cc1c(NC(=O)COC(=O)C(c2ccc(Cl)cc2)C(C)C)c(=O)n(-c2ccccc2)n1C (centres unmarked)	0.0929
O=c1c2ccccc2nc(-c2ccccc2)n1-c1nccs1	-1.69
Br.CCCCCCCCCCn1c2c(c(=N)c3c1CCC3)CCC2	-78.9
c1ccc(CN2CCN(c3nc4ccccc4c4ccccc34)CC2)cc1	-3.19
O=C(CCc1nnc2ccc(NCc3ccco3)nn12)N1CCN(c2ccc(F)cc2)CC1	-46.7
CCOc1cc(C)nc(NCCc2ccc(OC)c(OC)c2)n1	-22.9

SMILES	hERG current change (%, negative = inhibition) at 10uM [%]
Cc1ccc(C(=O)NC(=S)N2CCN(C)CC2)cc1	-1.37
O=C(N/N=C/c1ccc(OC(=O)c2cccs2)cc1)c1cccc(F)c1	8.24
CN(C)C(CNC(=O)c1cccc(S(=O)(=O)Nc2ccccc2Cl)c1)c1ccco1 (centres unmarked)	-27.8
O=S(=O)(NCC(c1ccco1)N1CCc2ccccc21)c1ccccc1 (centres unmarked)	-15.9
COc1cccc(NC(=O)NC2CCN(Cc3nnnn3Cc3ccc(F)cc3)CC2)c1	-53.2
CNC(=O)[C@@]1(Cc2ccccc2)C=C[C@@H](C)N1C(C)=O	5.07
Cc1cc(C)n(-c2nc(NCC(C)O)c3c4c(sc3n2)CCCC4)n1 (centres unmarked)	-4.89
COc1c(Cl)cnn(-c2ccc(Cl)c(Cl)c2)c1=O	18.1
CSc1nc2c(c(=O)n1-c1ccc(F)cc1)SCC2	5
O=C(O)C1CC=C(Cl)CC1C(=O)NC1CCCCC1 (centres unmarked)	15.5
N/C(=N\c1nc2ccccc2o1)NC(=O)c1ccc(Cl)cc1	35.6
CCn1c(SCc2ccccc2)nnc1C1CCN(S(=O)(=O)c2ccc(OC)cc2)CC1	-60.8
COc1ccc(F)cc1C(=O)C1CCCN(C(=O)c2ccc(C(C)=O)s2)C1 (centres unmarked)	-4.71
COC(=O)c1[nH]c2ccc(C)cc2c1NC(=O)CN1CCN(c2ccc(F)cc2)CC1	-1.02
O=C(Nc1ccc(S(=O)(=O)Nc2cnc3ccccc3n2)cc1)c1cccc(OC(F)F)c1	-14.1
CCOc1ccc(C(=O)NCC(=O)NCC2CCCCC2)cc1OCC	7.79
CNC(=S)N(C)/N=C1/C(=O)N(Cc2c(Cl)cccc2Cl)c2ccccc21	-7.77
CCCc1cc(C(=O)OC)c(NC(=O)CCC(=O)O)s1	18.3
Cc1cc(-c2ccccc2)nc(N2CCC(C(=O)NC(C)C)CC2)n1	4.06
COc1ccc(OC)c(N(C(=O)c2snc(C(N)=O)c2N)C(C(=O)NCc2ccccc2)c2ccc(O)cc2)c1 (centres unmarked)	-20.6
COc1ccc(CCNC(=O)c2ccc3nc(N4CCCCC4)sc3c2)cc1OC	-2.71
COc1ccc(C(=O)N[C@H](C(=O)Nc2ccc(OC)nc2)C(C)C)cc1	-6.37
